Article PMC4336329 (PLoS ONE, 2015)
The campaign covered roughly 310,000 compounds. About 14,000 (4.5%) showed an effect of 50% or more. Effects have a minus sign here. The list shows a part of the results.

Target: human ether-à-go-go-related gene (hERG) potassium channel (human, UniProt Q12809)
Assay: primary screen, population patch clamp on CHO cells stably expressing hERG
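Further: peak tail current of the secondary pulse compared with the same well before compound.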

Chain of human ether-à-go-go-related gene (hERG) potassium channel (Q12809 whole entry, looked up): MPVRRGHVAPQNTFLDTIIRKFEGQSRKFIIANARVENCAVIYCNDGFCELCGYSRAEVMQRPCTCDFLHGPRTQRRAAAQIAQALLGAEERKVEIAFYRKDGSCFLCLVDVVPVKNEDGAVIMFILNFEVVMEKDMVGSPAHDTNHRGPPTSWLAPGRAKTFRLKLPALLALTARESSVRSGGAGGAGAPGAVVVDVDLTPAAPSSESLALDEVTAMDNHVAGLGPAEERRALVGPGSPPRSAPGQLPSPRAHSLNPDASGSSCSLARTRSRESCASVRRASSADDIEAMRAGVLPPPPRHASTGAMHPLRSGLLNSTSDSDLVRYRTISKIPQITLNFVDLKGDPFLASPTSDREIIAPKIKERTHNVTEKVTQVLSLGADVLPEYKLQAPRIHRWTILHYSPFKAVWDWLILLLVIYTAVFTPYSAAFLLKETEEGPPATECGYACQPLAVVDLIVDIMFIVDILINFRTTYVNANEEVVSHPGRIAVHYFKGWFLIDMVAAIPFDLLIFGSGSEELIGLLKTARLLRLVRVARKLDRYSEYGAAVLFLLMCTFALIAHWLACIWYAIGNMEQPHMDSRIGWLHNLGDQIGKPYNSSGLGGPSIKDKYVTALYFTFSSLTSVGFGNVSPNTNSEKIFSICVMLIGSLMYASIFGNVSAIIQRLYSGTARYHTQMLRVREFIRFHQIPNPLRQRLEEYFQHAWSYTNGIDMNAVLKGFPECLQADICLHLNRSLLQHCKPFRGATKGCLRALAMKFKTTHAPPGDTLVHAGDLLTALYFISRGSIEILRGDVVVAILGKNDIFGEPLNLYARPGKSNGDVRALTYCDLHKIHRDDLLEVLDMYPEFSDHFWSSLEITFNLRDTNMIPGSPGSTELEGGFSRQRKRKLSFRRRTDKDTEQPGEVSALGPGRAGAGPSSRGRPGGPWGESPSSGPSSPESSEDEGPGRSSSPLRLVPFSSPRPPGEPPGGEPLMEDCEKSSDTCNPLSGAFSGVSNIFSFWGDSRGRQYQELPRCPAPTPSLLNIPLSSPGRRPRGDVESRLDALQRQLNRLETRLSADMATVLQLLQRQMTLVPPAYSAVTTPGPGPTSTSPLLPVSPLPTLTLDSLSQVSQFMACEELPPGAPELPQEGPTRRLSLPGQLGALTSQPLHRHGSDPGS

| SMILES | hERG current change (%, negative = inhibition) at 10uM [%] |
| --- | --- |
| COC(=O)C1=C(c2ccc(-c3ccccc3)c(F)c2)C[C@@H]2CC[C@H]1N2C(=O)NCc1ccc(F)cc1 | 19.8 |
| COc1cc2c(cc1NC(=O)C(C)N1CCN(S(=O)(=O)c3ccc(C)c(C)c3)CC1)oc1ccccc12 (centres unmarked) | 26.7 |
| Cc1ccc(C2C(C#N)=C(N)Oc3cc4c(cc32)OCO4)cc1 (centres unmarked) | 9.19 |
| CCCCOc1ccc(Cl)cc1Nc1nc(NCCO)nc(N2CCCC2)n1 | 12.2 |
| CCCC(=O)NC(=S)Nc1ccccc1OC | 6.4 |
| O=C1/C(=C/c2ccccn2)SC(=S)N1NS(=O)(=O)c1ccccc1 | 14.9 |
| COc1ccccc1NC(=O)C1=C(C)Nc2nc(-c3ccc(N(C)C)cc3)nn2C1c1ccncc1 (centres unmarked) | -19 |
| Cc1ccc(C(=O)NC(=S)Nc2cccnc2Cl)cc1 | -37.7 |
| CCn1c(=O)c(=O)[nH]c2cc(C(=O)NC(C)c3ccc(S(N)(=O)=O)cc3)ccc21 (centres unmarked) | 3.47 |
| O=C(c1cccc(C(F)(F)F)c1)N1CCc2c([nH]c3ccccc23)C1C(F)(F)F (centres unmarked) | 2.05 |
| CCOC(=O)[C@H]1[C@H]2COc3ccc(Cl)cc3[C@@H]2N2C(=O)CN(Cc3ccc(OC)cc3)C(=O)[C@@]12C | -5.65 |
| CC(=O)Nc1ccc(NS(=O)(=O)c2cccc3nonc23)cc1 | 23.9 |
| COC(=O)c1[nH]c(C)c(/C(O)=C2\C(=O)C(=O)N(CCN(C)C)C2c2ccco2)c1C (centres unmarked) | 5.34 |
| CC1CCCN(c2nc3ccccc3nc2C(C#N)S(=O)(=O)c2cccs2)C1 (centres unmarked) | 4.13 |
| Cc1ccc(C)c(NS(=O)(=O)c2ccccc2C)c1 | -21.1 |
| O=C(NC(Cc1ccccc1)C(=O)O)C1CCN(S(=O)(=O)c2cccc(C(F)(F)F)c2)CC1 (centres unmarked) | 19.2 |
| CCOC(=O)c1ccc(COC(=O)c2cc(=O)[nH]c3ccccc23)o1 | -1.04 |
| CC1=NNC(=O)C1CC(=O)N/N=C/c1sccc1C (centres unmarked) | 4.63 |
| Cc1ccc(OCC(=O)NNC(=O)C2CCC2)cc1C | 11.9 |
| COc1ccc2nc(SCC(=O)/C(C#N)=C(\C)N)[nH]c2c1 | -11.9 |
| Cc1ccc(S(=O)(=O)Nc2c(C)n(C)n(-c3ccccc3)c2=O)cc1C(=O)NCc1ccccc1 | -3.31 |
| CCN(CC)c1ccc(N=Cc2c(O)n(Cc3ccco3)c(=O)[nH]c2=O)cc1 | 3.93 |

| SMILES | hERG current change (%, negative = inhibition) at 10uM [%] |
| --- | --- |
| Cc1nnc(SCC(=O)Nc2nccs2)[nH]c1=O | 14 |
| CCCCNC(=O)CN(c1cccc(Br)c1)S(C)(=O)=O | -4.67 |
| COc1ccc(C(=O)N2CCOC23CCN(c2ncccn2)CC3)cc1 | 6.88 |
| CCS(=O)(=O)n1nc(NCc2cccc(OC)c2)nc1NCc1cccc(OC)c1 | -21.1 |
| CC(C)CC(=O)C1CCCN(C(=O)c2ccc3oc(Cc4ccccc4)nc3c2)C1 (centres unmarked) | -18.4 |
| Cc1cc(C)c2c(NC(N)=S)n[nH]c2n1 | 9.01 |
| Cc1cccc(S(=O)(=O)N2CCCc3ccccc32)c1 | 22.1 |
| CCN(CC)C(=O)COc1coc(CN2CCN(c3ccc(F)cc3)CC2)cc1=O | 1.88 |
| COCCN1CCN(C(=O)C2CCC(=O)N(Cc3ccccc3F)C2)CC1 (centres unmarked) | 1.48 |
| O=C(Nc1ccc(F)cc1F)c1ccc(-n2cccn2)c([N+](=O)[O-])c1 | -13.3 |
| C(#CC1CCCC1)c1ccc2c(c1)COc1c3ccccc3nn1-2 | 14 |
| Cc1ccc(C(=O)NNC(=O)Cn2ccc(C(F)(F)F)n2)o1 | 13.2 |
| CCCCn1c(N)c(N(CC)C(=O)c2ccc(Cl)c(Cl)c2)c(=O)[nH]c1=O | 13 |
| CCC(c1nnnn1CCOC)N1CCN(C(=O)c2ccco2)CC1.Cl (centres unmarked) | 9.17 |
| C=CCn1c(SCN2C(=O)c3ccccc3C2=O)nc2ccc(Cl)cc2c1=O | 24.3 |
| COc1cc(S(=O)(=O)Nc2ccc(Br)cc2)ccc1N | -6.01 |
| Cc1ccc(C)c(OCCC(=O)OCC(=O)Nc2ccc(Cl)cn2)c1 | -26.3 |
| O=C1CCC/C1=C\c1ccccc1 | -1.9 |
| Cc1ccc(C)c(S(=O)(=O)N2CCCOC2CNC(=O)C(=O)NCCN2CCOCC2)c1 (centres unmarked) | 19.5 |
| CC1CC(=O)Nc2ccccc2N1S(=O)(=O)c1cccc(F)c1 (centres unmarked) | 9.89 |
| Cc1ccc(-c2ccc(CCC(=O)O)n2NC(=O)c2ccc([N+](=O)[O-])cc2)cc1 | 23.8 |
| Cc1ccc(C(=O)Nc2nnc(C)s2)cc1 | 21.5 |
